# Data: the supplement of paper PMC11417369
# The list shows a part of the results.
# System: PfAP2-HC AP2 domain (GST-tagged)
# Assay: gcPBM binding intensity (ln(normalized median fluorescence intensity)); higher = stronger DNA binding
# In short: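 Plasmodium falciparum DNA-binding domains carrying a GST tag were expressed in E. coli and applied for 1 h, at about 25 μg on average, to an Agilent 4 × 180k array. The array held primer-extended double-stranded 36-bp intergenic genomic probes together with negative controls, and binding took place in 1× PBS with 1% milk, 0.2 mg/ml BSA, 0.5% salmon testes DNA and 0.03% Triton X-100. An Alexa488 anti-GST antibody detected bound protein, and the array was scanned at 488 nm. Binding intensity is taken as the highest Masliner-normalised natural-log median intensity across replicate spots of either probe orientation.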
row,Sequence,gcPBM binding intensity (ln)
1,AAAAAAAAAAAAAACATACACACATTGAACTTTTAT [CACACA_site3251],10
2,ACAAAATTTACAAAATGTACAAAATTTACAAAATAT [XGTACX_site3542],9.8
3,CTATAAAAATATAATTGTACAAATTTTTATATCTTA [XGTACX_site7722],9.46
4,GAAATTATGTAAAAAAGTACTAACATACATATATAT [XGTACX_site1794],9.77
5,GAAAACGTCTTTAATAGTACACAGTTAAAAAATACA [XGTACX_site8976],9.36
6,TCATATAACACTTGATGTACAAGAATCCAAGTTGCA [XGTACX_site8758],9.42
7,ATATGTATAATATATATATATATATATATATATATA [CACACA_negctrl_site623],9.6
8,TTAAAATAGATAAATAGTACTCTTTCCATTATGTAA [XGTACX_site6299],9.45
9,TATATAATAAGATATGCATGCACATGTAAAATGAAT [TGCATGCA_site499],10.1
10,ATAATGTTTTATAATACACACATTAGATATATAAAT [CACACA_site7834],9.74
11,GTGATAAATATTATATGTACATATAATATTTATGTC [XGTACX_site8023],9.71
12,TTGAACCTGATAAATACACACAATATATATTTTTTT [CACACA_site2173],9.8
13,TCAAAAACGAGACATGCATGCAATTCATTTTGATTC [TGCATGCA_site212],9.55
14,CCATTCTTACTTTATTGTACTTGAAAATTTTTTTTA [XGTACX_site6160],9.97
15,TAAATACTTTTATGTACACACATATAGATATATATT [CACACA_site5416],9.84
16,TTATGAAAAATAAAATTAGAAAAAAAGGAAAATGAA [XGTACX_negctrl_site232],9.64
17,TTTCTTAAATATATTGAGGAATAAAAAGAAGAAAAG [GTGCAC_negctrl_site281],9.51
18,AGGTTACATAGATTTTGTACATATATATTATTTTTT [XGTACX_site3040],9.71
19,AAAAAATTATAAAAGTGTACATATATATATATATAT [XGTACX_site154],9.57
20,ATATATATATGTTACTGTACTAATTTATATGTTAAT [XGTACX_site3341],9.76
21,AATACAAATATATACACACATACATACATACATATA [CACACA_site3147],10.4
22,TAGATATATAATTTGCGTACACAAATAATATATTTT [XGTACX_site6397],9.53
23,TAGTTTTCTTAAAGATGTACATTTTAAAAATAATCT [XGTACX_site255],9.36

row,Sequence,gcPBM binding intensity (ln)
1,CACAAAAATAGACACACACACATATAGATTTATTAT [CACACA_site7676],10.6
2,TTATGGTTTAAATAAAGTACAAATAAATAAATATAT [XGTACX_site5777],9.6
3,ATACACATATGTTAATGTACACATATATAATATTTA [XGTACX_site163],9.67
4,ATATATTAAAAACGATGTACCCTGAACTAAAAAAAA [XGTACX_site4986],9.73
5,TATTTATTTATGTGTTGTACAAATAAATAGAGGTAT [XGTACX_site6408],9.67
6,TTTATTTATTACAATTTTTGAATCACCACACAGTCG [GTGCAC_negctrl_site413],9.58
7,ATCATGTTATATACATGTACATATATATATATATAT [XGTACX_site1329],9.67
8,TATATGAAAATGTTCATACACACATAAAAAAAAAAA [CACACA_site3237],9.73
9,CATATTTCTTTATTGGCACACATTTTTTCAATTATA [CACACA_site1618],9.97
10,AAAAAAAAAAAAAACACACACAAATTTAATCTATAT [CACACA_site6894],10.9
11,TGTTATTACTTTATATCATCTTAAAATAAGCATATT [CACACA_negctrl_site1501],9.48
12,TTGAAAATACAAAATTGTACAAAGATTTAAATAAAA [XGTACX_site1182],9.79
13,TGAAATAAATAATGCACACTCTACAGATATACGTAT [CACACA_site5270],9.78
14,CGCATACACAGACACACACACACATATAAATATGTA [CACACA_site6444],10.7
15,AATTTTTTATTAAACACACAAACATATATATATATA [CACACA_site1937],9.66
16,TATACCTATAGACACACACACATATAGATTTATATA [CACACA_site7124],11.1
17,TTCATTCAAATTAACGTGCACATTATTAGTAAAAAC,9.52
18,TTATATAATTTAATAGTGCAATTATATTAATTTTTC,9.44
19,GTTCATACTTAATATTGTACTTTTCATGTAGTGTAT [XGTACX_site6613],9.83
20,AAATAAATATTTATATGTACATATATTTTATAATAC [XGTACX_site7041],9.7
21,TAACATATTTTTAATACACACTCAAAAAAGTACTTA [CACACA_site5638],9.44
22,TACAAATATATATGCACACACATATACATACATATA [CACACA_site2182],10
